# Laboratory results published in the supplement of paper PMC8728848.
# The other results are listed elsewhere or left out.
# B1: EEA (Euonymus europaeus) (protein)
# chain: MASTIIATGPTYRVYCRAAPNYNMIVGKGVAFLAPIDETNELQYWYKDDTYSYIKDEAGLPAFSLVNKATGLTLKHSNHHPVPVKLVTYNPNVVDESVLWSQADDRGDGYSAIRSLTNPASHLEAAPLNDWSYNGAIIMGGVWIDAYNQQWKIEPHTG
# Experiments:
# Experiment in all cases: glycan array binding signal (z-score within array); higher = stronger binding
# Conditions in all cases: glycan notation: IUPAC condensed, linker removed
# [1] = target: Fuc(a1-2)Gal(b1-4)Fuc(a1-3)]GlcNAc(b1-2)Man(a1-3)[Fuc(a1-2)Gal(b1-4)[Fuc(a1-3)]GlcNAc(b1-2)Man(a1-6)]Man(b1-4)GlcNAc(b1-4)GlcNAc
# In short: (§1)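 Negative Z-scores can be read as non-binding. The Z-score is calculated within each array and then averaged across arrays of one protein sequence at different concentrations or buffers and across linkers. Arrays, 3228 in all, were curated from the Consortium for Functional Glycomics database and kept only where the protein sequence was available.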
# Fuc(a1-2)Gal(b1-4)Glc = target: Fuc(a1-2)Gal(b1-4)Glc
# In short: as §1
# Fuc(a1-2)Gal(b1-4)Glc6S = target: Fuc(a1-2)Gal(b1-4)Glc6S
# In short: as §1
# Fuc(a1-2)Gal(b1-4)GlcNAc = target: Fuc(a1-2)Gal(b1-4)GlcNAc
# In short: as §1
# [2] = target: Fuc(a1-2)Gal(b1-4)GlcNAc(b1-2)Man
# In short: as §1
# [3] = target: Fuc(a1-2)Gal(b1-4)GlcNAc(b1-2)Man(a1-3)[Fuc(a1-2)Gal(b1-4)GlcNAc(b1-2)Man(a1-6)]Man(b1-4)GlcNAc(b1-4)GlcNAc
# In short: as §1
# [4] = target: Fuc(a1-2)Gal(b1-4)GlcNAc(b1-2)Man(a1-3)[Fuc(a1-2)Gal(b1-4)GlcNAc(b1-2)Man(a1-6)]Man(b1-4)GlcNAc(b1-4)[Fuc(a1-6)]GlcNAc
# In short: as §1
# [5] = target: Fuc(a1-2)Gal(b1-4)GlcNAc(b1-2)[Fuc(a1-2)Gal(b1-4)GlcNAc(b1-4)]Man(a1-3)[Fuc(a1-2)Gal(b1-4)GlcNAc(b1-2)Man(a1-6)]Man(b1-4)GlcNAc(b1-4)GlcNAc
# In short: as §1
# [6] = target: Fuc(a1-2)Gal(b1-4)GlcNAc(b1-3)Gal(b1-4)GlcNAc
# In short: as §1
# [7] = target: Fuc(a1-2)Gal(b1-4)GlcNAc(b1-3)Gal(b1-4)GlcNAc(b1-2)Man(a1-3)[Fuc(a1-2)Gal(b1-4)GlcNAc(b1-3)Gal(b1-4)GlcNAc(b1-2)Man(a1-6)]Man(b1-4)GlcNAc(b1-4)GlcNAc
# In short: as §1
# [8] = target: Fuc(a1-2)Gal(b1-4)GlcNAc(b1-3)Gal(b1-4)GlcNAc(b1-3)Gal(b1-4)GlcNAc
# In short: as §1
# [9] = target: Fuc(a1-2)Gal(b1-4)GlcNAc(b1-3)GalNAc
# In short: as §1
# [10] = target: Fuc(a1-2)Gal(b1-4)GlcNAc(b1-3)[Fuc(a1-2)Gal(b1-4)GlcNAc(b1-6)]GalNAc
# In short: as §1
# [11] = target: Fuc(a1-2)Gal(b1-4)GlcNAc(b1-3)[Fuc(a1-3)[Gal(b1-4)]GlcNAc(b1-6)]Gal(b1-4)Glc
# In short: as §1
# [12] = target: Fuc(a1-2)Gal(b1-4)GlcNAc(b1-6)GalNAc
# In short: as §1
# [13] = target: Fuc(a1-2)Gal(b1-4)GlcNAc6S
# In short: as §1
# [14] = target: Fuc(a1-2)Gal(b1-4)[Fuc(a1-3)]GalNAc(b1-3)Gal(b1-4)[Fuc(a1-3)]GlcNAc
# In short: as §1
# [15] = target: Fuc(a1-2)Gal(b1-4)[Fuc(a1-3)]GalNAc(b1-3)Gal(b1-4)[Fuc(a1-3)]GlcNAc(b1-3)Gal(b1-4)[Fuc(a1-3)]GalNAc
# In short: as §1
# [16] = target: Fuc(a1-2)Gal(b1-4)[Fuc(a1-3)]GlcNAc
# In short: as §1
# [17] = target: Fuc(a1-2)Gal(b1-4)[Fuc(a1-3)]GlcNAc(b1-2)Man(a1-3)[Fuc(a1-2)Gal(b1-4)[Fuc(a1-3)]GlcNAc(b1-2)Man(a1-6)]Man(b1-4)GlcNAc(b1-4)[Fuc(a1-6)]GlcNAc
# In short: as §1
# [18] = target: Fuc(a1-2)Gal(b1-4)[Fuc(a1-3)]GlcNAc(b1-2)[Fuc(a1-2)Gal(b1-4)[Fuc(a1-3)]GlcNAc(b1-4)]Man(a1-3)[Fuc(a1-2)Gal(b1-4)[Fuc(a1-3)]GlcNAc(b1-2)Man(a1-6)]Man(b1-4)GlcNAc(b1-4)GlcNAc
# In short: as §1
# [19] = target: Fuc(a1-2)Gal(b1-4)[Fuc(a1-3)]GlcNAc(b1-3)Gal(b1-4)[Fuc(a1-3)]GlcNAc
# In short: as §1
# [20] = target: Fuc(a1-2)Gal(b1-4)[Fuc(a1-3)]GlcNAc(b1-3)Gal(b1-4)[Fuc(a1-3)]GlcNAc(b1-3)Gal(b1-4)[Fuc(a1-3)]GlcNAc
# In short: as §1
binder,measurement,setting,value
B1,glycan array binding signal (z-score),[1],-0.109
same,glycan array binding signal (z-score),Fuc(a1-2)Gal(b1-4)Glc,-0.13
same,glycan array binding signal (z-score),Fuc(a1-2)Gal(b1-4)Glc6S,-0.08
same,glycan array binding signal (z-score),Fuc(a1-2)Gal(b1-4)GlcNAc,0.32
same,glycan array binding signal (z-score),[2],-0.244
same,glycan array binding signal (z-score),[3],0.161
same,glycan array binding signal (z-score),[4],0.07
same,glycan array binding signal (z-score),[5],0.14
same,glycan array binding signal (z-score),[6],1.3
same,glycan array binding signal (z-score),[7],0.832
same,glycan array binding signal (z-score),[8],1.22
same,glycan array binding signal (z-score),[9],-0.283
same,glycan array binding signal (z-score),[10],-0.158
same,glycan array binding signal (z-score),[11],0.102
same,glycan array binding signal (z-score),[12],-0.104
same,glycan array binding signal (z-score),[13],0.323
same,glycan array binding signal (z-score),[14],-0.359
same,glycan array binding signal (z-score),[15],0.088
same,glycan array binding signal (z-score),[16],-0.144
same,glycan array binding signal (z-score),[17],-0.058
same,glycan array binding signal (z-score),[18],-0.076
same,glycan array binding signal (z-score),[19],-0.228
same,glycan array binding signal (z-score),[20],-0.187
